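Briefly, cells in 96-well plates were exposed to five compound concentrations for 48 h, and endpoints were estimated by linear interpolation. The concentration for 50% growth inhibition is given as GI50. TGI: total growth inhibition.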
Tested on: NCI-H322M lung
Assay: NCI-60 cell line screen, 48 h

Row | SMILES | GI50 | TGI
1 | COc1ccc2[nH]c(O)c(N=Nc3nc(-c4ccc(Br)cc4)cs3)c2c1 | 8.02 µM | > 100 µM
2 | COc1ccc2[nH]c(=O)c(CSc3nccc(-c4ccc(Cl)cc4)n3)cc2c1 | 19.8 µM | 57.5 µM
3 | COc1cc2c(c(OC)c1OC)C(=O)CC(c1cccc(NC(=O)c3cc(NC(=O)[C@H](C)N)ccc3Cl)c1)O2 (stereo partly drawn) | 16.2 µM | 30.3 µM
4 | Cc1oc(-c2ccccc2)nc1CN[C@@H]1C[C@@H]2C[C@H]([C@H]1C)C2(C)C | 13.3 µM | 26 µM
